From the supplement of paper PMC5895741

B1: MS2 coat protein; the commonest letter at each place (parent)
chain: MASNFTQFVLVDNGGTGDVTVAPSNFANGVAEWISSNSRSQAYKVTCSVRQSSAQNRKYTIKVEVPKVATQTVGGVELPVAAWRSYLNMELTIPIFATNSDCELIVKAMQGLLKDGNPIPSAIAANSGIY

Variants of: B1
Assay: apparent fitness score (VLP assembly selection enrichment vs plasmid library) (log10 ratio); higher = better expression / assembly into well-formed VLPs
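Also: counts from Illumina MiSeq reads, cDNA of packaged RNA versus plasmid DNA taken before selection, each replicate independent from library construction onward, expression induced with 0.1% arabinose.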

Apparent fitness score (log10): each site, then its substitutions
P94: Q -0.698; R -0.916; S -1.68; T -1.52; V -1.13; W -1.62; Y -0.999
I95: A < -4; C -0.573; D -0.236; E -1.63; F -0.572; G -1.46; H 0.379; K -0.634; L -1.54; M -0.522; N 0.21; P < -4; Q -0.991; R -1.93; S < -4; T -0.825; V 0.32; W -0.849; Y < -4
F96: A -0.753; C -0.966; D < -4; E -1.61; G -1.48; H -0.728; I < -4; K -1.47; L -1.52; M -0.66; N < -4; P < -4; Q < -4; R -1.52; S < -4; T < -4; V -0.862; W 0.611; Y 0.636
A97: C -1.3; D -0.13; E -0.383; F -2.11; G -1.29; H < -4; I -1.28; K -1.48; L < -4; M < -4; N < -4; P -0.787; Q -0.72; R -1.01; S -0.369; T -0.409; V -0.335; W -1.16; Y -1.32
T98: A 0.46; C 0.394; D 1.02; E 0.745; F -1.52; G -0.656; H -0.465; I -1.61; K -1.6; L -1.6; M 0.671; N 0.335; P -0.568; Q -0.838; R -1.16; S 0.485; V -1.06; W < -4; Y -0.876
N99: A -0.564; C 0.578; D 0.058; E -0.798; F -0.71; G -0.651; H -0.138; I 0.716; K -1.12; L 0.617; M 0.488; P 0.466; Q < -4; R -0.826; S -0.554; T -0.0898; V -0.522; W -1.21; Y -1.32
S100: A 0.951; C 0.615; D 1.1; E 0.896; F -0.906; G 0.57; H 0.02; I 0.00398; K 0.709; L 0.371; M 0.4; N 0.648; P 0.724; Q 0.446; R 0.358; T 0.549; V 0.241; W -0.943; Y -0.0446
D101: A -0.869; C -0.784; E -0.698; F -0.752; G -1.47; H < -4; I -1.17; K -0.698; L -1.5; M < -4; N -1.04; P -0.568; Q -0.573; R -1.23; S < -4; T < -4; V -0.859; W -1.14; Y < -4
C102: A -1.5; D < -4; E -1.05; F -1.13; G -2.18; H -1.32; I -0.897; K -0.871; L -0.831; M -1.17; N < -4; P < -4; Q < -4; R -0.798; S -1.65; T < -4; V -0.571; W -0.694; Y -1.3
E103: A 0.739; C 0.784; D 0.271; F 0.399; G 0.679; H 0.909; I 0.537; K 0.109; L 0.491; M 0.648; N 0.481; P < -4; Q 0.535; R 0.315; S 0.97; T 0.487; V 0.471; W -0.568; Y 0.573
L104: A -0.151; C 0.354; D -0.243; E -0.804; F -0.422; G 0.33; H 0.482; I 0.557; K 0.26; M 0.572; N 0.286; P -0.267; Q 0.508; R 0.693; S 0.256; T 0.0743; V 0.749; W 0.479; Y 0.45
I105: A < -4; C -0.522; D < -4; E < -4; F -1; G < -4; L -0.0445; N -0.0599; P -0.392; R < -4; S < -4; T -0.0906; V 0.0038; W < -4; Y < -4
V106: A < -4; D 0.307; E < -4; F -1.98; G -1.47; H < -4; I 0.141; L -0.34; N < -4; P < -4; Q < -4; R < -4; S < -4; W < -4; Y < -4
K107: C < -4; D < -4; E -0.675; F -0.847; G < -4; H 0.0996; I < -4; L -0.438; M -0.0877; N -0.0255; P < -4; R 0.625; S -1.06; T < -4; V -0.823; W -0.983; Y -0.381
A108: C -0.227; D -0.662; E -1.56; F < -4; G -0.635; H < -4; I -0.768; K -1.03; L < -4; M -1.03; N < -4; P -0.654; Q < -4; R -0.506; S 0.712; T -0.491; V -0.267; W < -4; Y -0.173
M109: A 0.834; C 0.81; D -1.19; E -1.48; F -0.868; G -1.06; H < -4; I 0.795; K -0.71; L 0.663; N -1.26; P -1.26; Q -1.29; R -1.09; S -0.921; T -0.121; V -0.494; W < -4; Y -1.03
Q110: A -1.04; C -1.03; D < -4; E < -4; F -1.34; G -0.745; H 0.639; I < -4; K < -4; L -1.1; M -0.304; N < -4; P < -4; R 0.54; S -1.24; T < -4; V -0.521; W -1.01; Y < -4
G111: A -0.935; C -0.628; D -0.203; E < -4; F -1.46; H < -4; I < -4; K < -4; L < -4; M < -4; N < -4; P < -4; Q < -4; R -0.927; S -1.38; T < -4; V -1.5; W < -4; Y < -4
L112: A -0.901; C 0.639; D -1.37; E < -4; F -0.754; G -0.862; H < -4; I 1.1; K < -4; M 0.807; N -0.925; P -0.824; Q < -4; R -0.948
